Source: US20230365958

Molecular target: human alpha-1-anti-trypsin, P01009
Sequence (P01009 whole entry, looked up): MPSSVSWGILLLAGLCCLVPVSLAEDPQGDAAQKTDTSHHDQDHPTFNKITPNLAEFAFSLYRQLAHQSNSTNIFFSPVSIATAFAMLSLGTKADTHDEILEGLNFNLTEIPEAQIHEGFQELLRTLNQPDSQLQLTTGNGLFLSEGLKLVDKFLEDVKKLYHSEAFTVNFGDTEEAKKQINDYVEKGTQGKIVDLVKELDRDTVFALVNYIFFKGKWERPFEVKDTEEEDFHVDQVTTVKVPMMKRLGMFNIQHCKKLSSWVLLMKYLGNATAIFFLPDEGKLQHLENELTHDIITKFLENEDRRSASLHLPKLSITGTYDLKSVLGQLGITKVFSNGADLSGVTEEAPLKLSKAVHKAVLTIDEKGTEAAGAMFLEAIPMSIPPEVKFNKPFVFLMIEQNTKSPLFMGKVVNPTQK

| Protein | Slope (linear regression of the decrease in enzyme activity versus A1AT concentration, 0-20 nM A1AT, colorimetric substrate assay) |
| --- | --- |
| wild-type PPE protein (native PPE; wild-type, active PPE peptidase domain) (protein) VVGGTEAQRNSWPSQISLQYRSGSSWAHTCGGTLIRQNWVMTAAHCVDRELTFRVVVGEHNLNQNDGTEQYVGVQKIVVHPYWNTDDVAAGYDIALLRLAQSVTLNSYVQLGVLPRAGTILANNSPCYITGWGLTRTNGQLAQTLQQAYLPTVDYAICSSSSYWGSTVKNSMVCAGGDGVRSGCQGDSGGPLHCLVNGQYAVHGVTSFVSRLGCNVTRKPTVFTRVSAYISWINNVIASN | -2.06 |
| wild-type PPE proprotein (WT rPPE) (protein) VVGGTEAQRNSWPSQISLQYRSGSSWAHTCGGTLIRQNWVMTAAHCVDRELTFRVVVGEHNLNQNDGTEQYVGVQKIVVHPYWNTDDVAAGYDIALLRLAQSVTLNSYVQLGVLPRAGTILANNSPCYITGWGLTRTNGQLAQTLQQAYLPTVDYAICSSSSYWGSTVKNSMVCAGGDGVRSGCQGDSGGPLHCLVNGQYAVHGVTSFVSRLGCNVTRKPTVFTRVSAYISWINNVIASN | -2.68 |
| Mutant J (D74A) modified PPE protein, activated (protein) VVGGTEAQRNSWPSQISLQYRSGSSWAHTCGGTLIRQNWVMTAAHCVARELTFRVVVGEHNLNQNDGTEQYVGVQKIVVHPYWNTDDVAAGYDIALLRLAQSVTLNSYVQLGVLPRAGTILANNSPCYITGWGLTRTNGQLAQTLQQAYLPTVDYAICSSSSYWGSTVKNSMVCAGGDGVRSGCQGDSGGPLHCLVNGQYAVHGVTSFVSRLGCNVTRKPTVFTRVSAYISWINNVIASNHHHHHH | -4.98 |
| Mutant F (Q211F) modified PPE protein, activated (protein) VVGGTEAQRNSWPSQISLQYRSGSSWAHTCGGTLIRQNWVMTAAHCVDRELTFRVVVGEHNLNQNDGTEQYVGVQKIVVHPYWNTDDVAAGYDIALLRLAQSVTLNSYVQLGVLPRAGTILANNSPCYITGWGLTRTNGQLAQTLQQAYLPTVDYAICSSSSYWGSTVKNSMVCAGGDGVRSGCFGDSGGPLHCLVNGQYAVHGVTSFVSRLGCNVTRKPTVFTRVSAYISWINNVIASNHHHHHH | -3.37 |
| Mutant H (T55A) modified PPE protein, activated (protein) VVGGTEAQRNSWPSQISLQYRSGSSWAHACGGTLIRQNWVMTAAHCVDRELTFRVVVGEHNLNQNDGTEQYVGVQKIVVHPYWNTDDVAAGYDIALLRLAQSVTLNSYVQLGVLPRAGTILANNSPCYITGWGLTRTNGQLAQTLQQAYLPTVDYAICSSSSYWGSTVKNSMVCAGGDGVRSGCQGDSGGPLHCLVNGQYAVHGVTSFVSRLGCNVTRKPTVFTRVSAYISWINNVIASNHHHHHH | -0.8 |
| Mutant D (R75E) modified PPE protein, activated (protein) VVGGTEAQRNSWPSQISLQYRSGSSWAHTCGGTLIRQNWVMTAAHCVDEELTFRVVVGEHNLNQNDGTEQYVGVQKIVVHPYWNTDDVAAGYDIALLRLAQSVTLNSYVQLGVLPRAGTILANNSPCYITGWGLTRTNGQLAQTLQQAYLPTVDYAICSSSSYWGSTVKNSMVCAGGDGVRSGCQGDSGGPLHCLVNGQYAVHGVTSFVSRLGCNVTRKPTVFTRVSAYISWINNVIASNHHHHHH | -3.94 |
| Mutant C (R75A) modified PPE protein, activated (protein) VVGGTEAQRNSWPSQISLQYRSGSSWAHTCGGTLIRQNWVMTAAHCVDAELTFRVVVGEHNLNQNDGTEQYVGVQKIVVHPYWNTDDVAAGYDIALLRLAQSVTLNSYVQLGVLPRAGTILANNSPCYITGWGLTRTNGQLAQTLQQAYLPTVDYAICSSSSYWGSTVKNSMVCAGGDGVRSGCQGDSGGPLHCLVNGQYAVHGVTSFVSRLGCNVTRKPTVFTRVSAYISWINNVIASNHHHHHH | -2.86 |
| Mutant G (R237A) modified PPE protein, activated (protein) VVGGTEAQRNSWPSQISLQYRSGSSWAHTCGGTLIRQNWVMTAAHCVDRELTFRVVVGEHNLNQNDGTEQYVGVQKIVVHPYWNTDDVAAGYDIALLRLAQSVTLNSYVQLGVLPRAGTILANNSPCYITGWGLTRTNGQLAQTLQQAYLPTVDYAICSSSSYWGSTVKNSMVCAGGDGVRSGCQGDSGGPLHCLVNGQYAVHGVTSFVSALGCNVTRKPTVFTRVSAYISWINNVIASNHHHHHH | -2 |
| Mutant A (N241A) modified PPE protein, activated (protein) VVGGTEAQRNSWPSQISLQYRSGSSWAHTCGGTLIRQNWVMTAAHCVDRELTFRVVVGEHNLNQNDGTEQYVGVQKIVVHPYWNTDDVAAGYDIALLRLAQSVTLNSYVQLGVLPRAGTILANNSPCYITGWGLTRTNGQLAQTLQQAYLPTVDYAICSSSSYWGSTVKNSMVCAGGDGVRSGCQGDSGGPLHCLVNGQYAVHGVTSFVSRLGCAVTRKPTVFTRVSAYISWINNVIASNHHHHHH | -3.64 |
